The list shows a part of the results. Values were computed here from the reads of four pooled replicates and scatter widely.

146 sequences from the BET-seq Pho4 binding data (Le et al. 2018) can be followed below.

This assay has as its target T1, Pho4 (S. cerevisiae) (UniProt P07270).
T1 sequence: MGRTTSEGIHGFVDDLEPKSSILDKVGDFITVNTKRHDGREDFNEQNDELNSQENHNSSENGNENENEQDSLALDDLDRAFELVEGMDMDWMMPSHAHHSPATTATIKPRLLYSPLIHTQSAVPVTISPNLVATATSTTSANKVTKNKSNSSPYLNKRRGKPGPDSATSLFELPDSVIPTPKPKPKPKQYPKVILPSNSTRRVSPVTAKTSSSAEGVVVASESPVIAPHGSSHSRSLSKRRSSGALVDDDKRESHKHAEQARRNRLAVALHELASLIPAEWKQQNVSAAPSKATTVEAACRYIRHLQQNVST
The experiment in a line: relative binding free energy (BET-seq); higher = weaker binding. Particulars: reference: library average.
For the sequence TTGCGCACGTGTCTTT, the “relative binding free energy” value was -0.04 kcal/mol. AATGACACGTGTAGAG: the “relative binding free energy” value stood at 0.25 kcal/mol. With AGGCTCACGTGGTATA the figure was 0.22 kcal/mol; with CTGAACACGTGGTTTG, -0.04 kcal/mol; with CATTGCACGTGCAGGG, -0.14 kcal/mol. As for ACTGCCACGTGTGGGG, the figure is -0.17 kcal/mol; as for GTCGGCACGTGTGTAA, -0.11 kcal/mol; as for GGTTTCACGTGGGTCA, 0.14 kcal/mol. With GTTTGCACGTGACTTT the figure was 0.12 kcal/mol. Consider ACGTGCACGTGAAGGT, for which the “relative binding free energy” value was found to be 0.05 kcal/mol.

Regarding AGGTGCACGTGTTTTC, the “relative binding free energy” value was -0.14 kcal/mol. Take TGGATCACGTGCTGGG: the “relative binding free energy” value was found to be 0.17 kcal/mol.

For TGTTTCACGTGAATCA, the “relative binding free energy” value is 0.31 kcal/mol. As for GGGATCACGTGTGCTG, the figure is 0.28 kcal/mol; as for TTGAGCACGTGATGAA, 0.07 kcal/mol. On to TTATCCACGTGGGGGC, for which the “relative binding free energy” value was -0.08 kcal/mol.

As for TTTGACACGTGAACTG, the “relative binding free energy” value was 0.24 kcal/mol. As for TATATCACGTGAATGT, the figure is 0.23 kcal/mol; as for ACAAGCACGTGGGCGG, -0.19 kcal/mol. As for TATGACACGTGCGGGA, the figure is -0.03 kcal/mol. As for ATGGGCACGTGAAAGA, the figure is 0.27 kcal/mol; as for CCGGTCACGTGGAGTT, 0.08 kcal/mol; as for AGGTGCACGTGTTCTT, -0.06 kcal/mol. Regarding GAAGGCACGTGGGCGG, the “relative binding free energy” value is -0.19 kcal/mol. As for TTCGTCACGTGAGTTA, the figure is 0.24 kcal/mol; as for ATGAACACGTGGTTTT, 0.02 kcal/mol; as for GGTAACACGTGGAGGG, 0.06 kcal/mol. As for GGCGCCACGTGGGTGC, the figure is -0.18 kcal/mol. On to GATGGCACGTGATGGC, for which the “relative binding free energy” value is 0.13 kcal/mol. With GTGGGCACGTGGGCTG the figure was -0.09 kcal/mol.

Consider GAGGGCACGTGTTTAT, for which the “relative binding free energy” value was found to be 0.15 kcal/mol. With GTCGTCACGTGTGAGG the figure was 0.15 kcal/mol.

GGAGTCACGTGATGCT: the “relative binding free energy” value came to 0.29 kcal/mol. For TTTGGCACGTGTGGGG, the “relative binding free energy” value was found to be 0.02 kcal/mol. Turning to CGTAACACGTGTGGCT, the “relative binding free energy” value stood at 0.14 kcal/mol. As to GTAGTCACGTGTCGTT, the “relative binding free energy” value was 0.16 kcal/mol. As for AGGAACACGTGTTAGG, the figure is 0.15 kcal/mol; as for TTAGCCACGTGGGGTA, -0.17 kcal/mol.

For the sequence ATAGACACGTGGGGGC, the “relative binding free energy” value was -0.02 kcal/mol. With GTTGGCACGTGTGATC the figure was 0.21 kcal/mol; with GTAGGCACGTGGGATA, -0.32 kcal/mol; with TTCAGCACGTGAGTAG, 0.25 kcal/mol. As for ATATGCACGTGGACGG, the figure is -0.05 kcal/mol; as for GACTGCACGTGTTGTT, 0.17 kcal/mol. With TTCTACACGTGAGGTT the figure was 0.34 kcal/mol. Turning to TTTACCACGTGCTGGG, the “relative binding free energy” value is -0.11 kcal/mol.

On to TAGTGCACGTGTTTGC, for which the “relative binding free energy” value was determined as 0.01 kcal/mol.

Turning to CGTGTCACGTGGTGTG, the “relative binding free energy” value is -0.11 kcal/mol. TCATTCACGTGGGGAT: the “relative binding free energy” value stood at 0.08 kcal/mol. As for TGATGCACGTGGATCA, the figure is 0.03 kcal/mol; as for TGTGGCACGTGGTCAG, -0.16 kcal/mol; as for ATCAGCACGTGGTGGA, -0.26 kcal/mol. As for TGAGTCACGTGTTGAC, the figure is 0.1 kcal/mol; as for CGCAGCACGTGGGGTG, -0.25 kcal/mol. Consider GGTGTCACGTGTGGGT, for which the “relative binding free energy” value was determined as 0.18 kcal/mol. With GATGTCACGTGGTTTT the figure was 0.2 kcal/mol. TTGTACACGTGTACTT: the “relative binding free energy” value is 0.11 kcal/mol. As for TATGTCACGTGCTTCG, the figure is 0 kcal/mol; as for GTTATCACGTGTGCGA, 0.26 kcal/mol; as for CGGTTCACGTGAATTT, 0.35 kcal/mol. With CATGGCACGTGTTTGG the figure was -0.06 kcal/mol. As for TAGTTCACGTGAGAGG, the figure is 0.35 kcal/mol; as for TTTGACACGTGAAGGG, 0.19 kcal/mol; as for GGGCGCACGTGCGGGG, -0.18 kcal/mol. On to TGGGCCACGTGTAAAT, for which the “relative binding free energy” value is 0.1 kcal/mol.

Take TTTTACACGTGTGAGC: the “relative binding free energy” value was found to be 0.13 kcal/mol.

Turning to ATTGGCACGTGGGAGA, the “relative binding free energy” value is -0.18 kcal/mol.

For the sequence AATGGCACGTGTAATT, the “relative binding free energy” value is -0.1 kcal/mol. As for ACAAACACGTGTTGGT, the figure is 0.15 kcal/mol. As for TAGTGCACGTGGTCCG, the figure is -0.03 kcal/mol; as for GTATACACGTGTGGGG, 0.12 kcal/mol; as for TTGGTCACGTGCCGGG, -0.05 kcal/mol. With GGCGTCACGTGGTATT the figure was 0.1 kcal/mol. For the sequence TCGGTCACGTGAGGGA, the “relative binding free energy” value was 0.28 kcal/mol. As for CTTGTCACGTGAAGTT, the figure is 0.17 kcal/mol; as for TTTTTCACGTGCCGGG, 0.26 kcal/mol; as for TATGTCACGTGAGAGG, 0.34 kcal/mol. With TGGGTCACGTGCGCTG, the “relative binding free energy” value was -0.11 kcal/mol. As for TTGGCCACGTGTGGCG, the figure is -0.07 kcal/mol; as for AATGGCACGTGTAGGG, -0.09 kcal/mol. As for GGGCTCACGTGTATTG, the “relative binding free energy” value came to 0.21 kcal/mol. For the sequence ATTTACACGTGGAGGG, the “relative binding free energy” value amounted to 0.12 kcal/mol. As for GGTGACACGTGTTTAT, the figure is 0.14 kcal/mol. With CGGCGCACGTGGAGGA the figure was -0.08 kcal/mol. As for TGGGGCACGTGGGGAT, the figure is -0.09 kcal/mol. Regarding CGTGACACGTGGGTGA, the “relative binding free energy” value is -0.1 kcal/mol.

Take ATTCGCACGTGGTATT: the “relative binding free energy” value is -0.13 kcal/mol.

Regarding AGTAGCACGTGCTTTG, the “relative binding free energy” value was -0.17 kcal/mol. As for TTTGACACGTGGGAGG, the figure is -0.04 kcal/mol; as for AAAAGCACGTGAAGTT, 0.34 kcal/mol; as for CTGGTCACGTGTTTCG, 0.17 kcal/mol.

For TTCTTCACGTGGGCTT, the “relative binding free energy” value is 0.18 kcal/mol.

With ATAGTCACGTGAAGTA, the “relative binding free energy” value was 0.33 kcal/mol. With AGGGGCACGTGTAGAC, the “relative binding free energy” value is -0.03 kcal/mol. As for AGGGACACGTGCCGTT, the figure is 0.01 kcal/mol; as for GGTTGCACGTGGAAAG, 0.17 kcal/mol. As for TTTATCACGTGGGGCG, the figure is 0 kcal/mol; as for TTTCACACGTGGGTTA, -0.06 kcal/mol. With TTGTGCACGTGACTGT the figure was 0.1 kcal/mol; with GAGAGCACGTGGAGGT, -0.07 kcal/mol. Turning to TATGGCACGTGATTGA, the “relative binding free energy” value is -0.02 kcal/mol. With TCGTTCACGTGGTAAA the figure was 0.24 kcal/mol. With AGGCGCACGTGGAAGT the figure was 0.08 kcal/mol. Regarding GATTGCACGTGGTAAT, the “relative binding free energy” value turned out to be 0.07 kcal/mol.

For ATTCGCACGTGGTTGT, the “relative binding free energy” value is -0.22 kcal/mol. In the case of ACGGTCACGTGTCAGG, the “relative binding free energy” value came to 0.14 kcal/mol.

Consider TTCGTCACGTGTCTGT, for which the “relative binding free energy” value stood at 0 kcal/mol. Turning to AGGGTCACGTGGGAGC, the “relative binding free energy” value worked out at 0.19 kcal/mol.

ACAGTCACGTGTTGAG: the “relative binding free energy” value was determined as 0.36 kcal/mol. As for TCTTACACGTGTTCGT, the figure is 0.21 kcal/mol; as for GACGACACGTGTGGTA, 0.19 kcal/mol. As to GGATACACGTGAGAAG, the “relative binding free energy” value is 0.46 kcal/mol. As for TGTTACACGTGGTATT, the figure is 0 kcal/mol; as for ATGGTCACGTGGAGAC, 0.24 kcal/mol. As for TAGTGCACGTGCTATT, the figure is -0.2 kcal/mol. With GGTGGCACGTGTGCGG the figure was -0.07 kcal/mol; with GCGCACACGTGTGTGG, 0.03 kcal/mol. Consider AAATTCACGTGTTTTG, for which the “relative binding free energy” value turned out to be 0.3 kcal/mol. With TGGGTCACGTGTCTAA the figure was 0.17 kcal/mol. Regarding GAGCGCACGTGTTTGT, the “relative binding free energy” value stood at 0.01 kcal/mol.

In the case of AAGATCACGTGATGAT, the “relative binding free energy” value was 0.32 kcal/mol. With GTTGTCACGTGAAGCT the figure was 0.26 kcal/mol. With TATATCACGTGTTCGG the figure was 0.32 kcal/mol; with AGGGTCACGTGCGGAC, 0.14 kcal/mol; with ATAAGCACGTGGGCTG, -0.39 kcal/mol. With ATTGGCACGTGTTGCG the figure was -0.14 kcal/mol; with ATACTCACGTGGAGTT, 0.3 kcal/mol. Consider CGTAGCACGTGGTGGT, for which the “relative binding free energy” value was -0.12 kcal/mol. As for ATAATCACGTGTAAGT, the figure is 0.14 kcal/mol; as for GGTGTCACGTGGCAGT, 0.04 kcal/mol; as for GTAGTCACGTGGCATA, 0.06 kcal/mol. Regarding CTTATCACGTGTGCGT, the “relative binding free energy” value was 0.21 kcal/mol. For AGGGGCACGTGTCGTA, the “relative binding free energy” value is -0.13 kcal/mol. As for CTGTACACGTGAGGTT, the figure is 0.4 kcal/mol; as for CTGGTCACGTGGAAAG, 0.18 kcal/mol; as for TTAGACACGTGGGCTG, -0.21 kcal/mol. With TCGGGCACGTGTGGAA the figure was 0 kcal/mol. As for TTTTGCACGTGTCTGA, the figure is 0.05 kcal/mol; as for GTTCTCACGTGGGTCT, 0.19 kcal/mol; as for TTTATCACGTGGTAGA, 0.16 kcal/mol.

TGCGTCACGTGTTGGC: the “relative binding free energy” value worked out at 0.06 kcal/mol. As for TGCGACACGTGTTGTG, the “relative binding free energy” value is -0.01 kcal/mol.

For TAATGCACGTGATTTG, the “relative binding free energy” value is 0.16 kcal/mol. As to ATTATCACGTGGGAAG, the “relative binding free energy” value was 0.1 kcal/mol.

With ATTGTCACGTGCATAT, the “relative binding free energy” value is -0.07 kcal/mol. With GTCAGCACGTGGATGT the figure was -0.01 kcal/mol.
